According to US20230021880A1, “Cladribine regimen for treating progressive forms of Multiple Sclerosis” (Merck Patent GmbH, priority 2017, published 2023):

What was measured:
[1] = biological target: CYP3A4 (Homo sapiens, UniProt P08684)
[2] = clinical; settings: human, cerebrospinal fluid / plasma
[3] = biological target: CYP1A2 (Homo sapiens, UniProt P05177)
[4] = biological target: CYP2E1 (Homo sapiens, UniProt P05181)
[5] = Cladribine pharmacokinetics following oral administration
[6] = biological target: P-gp (Homo sapiens, UniProt P08183); settings: in vitro
[7] = clinical; settings: human, in vivo
[8] = biological target: CYP2B6 (Homo sapiens, UniProt P20813)
[9] = biological target: CYP2C9 (Homo sapiens, UniProt P11712)
Sequence of CYP2C9 (P11712 whole entry): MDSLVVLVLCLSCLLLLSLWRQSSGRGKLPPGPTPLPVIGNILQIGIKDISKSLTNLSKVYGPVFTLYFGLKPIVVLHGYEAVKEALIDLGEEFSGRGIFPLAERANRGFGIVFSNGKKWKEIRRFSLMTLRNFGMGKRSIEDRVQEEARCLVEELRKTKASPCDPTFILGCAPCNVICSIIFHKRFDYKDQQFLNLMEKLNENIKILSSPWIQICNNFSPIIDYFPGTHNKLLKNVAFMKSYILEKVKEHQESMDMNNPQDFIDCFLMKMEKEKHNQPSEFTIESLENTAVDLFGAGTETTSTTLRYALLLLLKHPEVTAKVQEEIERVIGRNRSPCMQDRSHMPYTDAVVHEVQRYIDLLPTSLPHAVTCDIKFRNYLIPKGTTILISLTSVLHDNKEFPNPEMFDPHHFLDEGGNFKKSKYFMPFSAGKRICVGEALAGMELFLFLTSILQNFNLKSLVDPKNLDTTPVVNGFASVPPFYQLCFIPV

Sequence of CYP2E1 (P05181 whole entry): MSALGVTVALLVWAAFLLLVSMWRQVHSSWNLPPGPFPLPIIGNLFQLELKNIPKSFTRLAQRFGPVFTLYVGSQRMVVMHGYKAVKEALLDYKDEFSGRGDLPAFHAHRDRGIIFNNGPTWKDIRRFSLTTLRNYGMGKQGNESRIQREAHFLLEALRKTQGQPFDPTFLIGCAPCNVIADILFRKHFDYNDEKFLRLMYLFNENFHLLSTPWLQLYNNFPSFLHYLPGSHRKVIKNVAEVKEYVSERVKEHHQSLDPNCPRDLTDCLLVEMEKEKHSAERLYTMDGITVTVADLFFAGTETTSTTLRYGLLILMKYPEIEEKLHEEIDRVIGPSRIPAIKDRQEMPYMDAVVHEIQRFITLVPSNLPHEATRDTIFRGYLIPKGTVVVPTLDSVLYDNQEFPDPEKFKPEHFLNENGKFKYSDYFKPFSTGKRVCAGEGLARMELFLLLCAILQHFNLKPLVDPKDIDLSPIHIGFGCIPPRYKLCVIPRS
Sequence of CYP2B6 (P20813 whole entry): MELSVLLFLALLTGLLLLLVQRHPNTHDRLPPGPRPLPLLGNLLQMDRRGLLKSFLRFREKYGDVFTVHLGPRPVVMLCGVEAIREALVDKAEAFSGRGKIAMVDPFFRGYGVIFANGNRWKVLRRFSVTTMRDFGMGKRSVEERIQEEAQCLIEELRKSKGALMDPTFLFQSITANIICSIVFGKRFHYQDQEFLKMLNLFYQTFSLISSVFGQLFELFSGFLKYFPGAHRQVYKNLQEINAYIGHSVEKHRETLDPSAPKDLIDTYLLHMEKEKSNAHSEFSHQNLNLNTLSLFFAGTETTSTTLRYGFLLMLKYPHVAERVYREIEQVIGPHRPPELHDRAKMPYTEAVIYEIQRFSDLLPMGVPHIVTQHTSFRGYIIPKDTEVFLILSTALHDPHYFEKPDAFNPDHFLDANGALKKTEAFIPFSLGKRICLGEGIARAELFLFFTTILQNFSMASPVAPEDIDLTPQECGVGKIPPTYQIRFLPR
Sequence of CYP1A2 (P05177 whole entry): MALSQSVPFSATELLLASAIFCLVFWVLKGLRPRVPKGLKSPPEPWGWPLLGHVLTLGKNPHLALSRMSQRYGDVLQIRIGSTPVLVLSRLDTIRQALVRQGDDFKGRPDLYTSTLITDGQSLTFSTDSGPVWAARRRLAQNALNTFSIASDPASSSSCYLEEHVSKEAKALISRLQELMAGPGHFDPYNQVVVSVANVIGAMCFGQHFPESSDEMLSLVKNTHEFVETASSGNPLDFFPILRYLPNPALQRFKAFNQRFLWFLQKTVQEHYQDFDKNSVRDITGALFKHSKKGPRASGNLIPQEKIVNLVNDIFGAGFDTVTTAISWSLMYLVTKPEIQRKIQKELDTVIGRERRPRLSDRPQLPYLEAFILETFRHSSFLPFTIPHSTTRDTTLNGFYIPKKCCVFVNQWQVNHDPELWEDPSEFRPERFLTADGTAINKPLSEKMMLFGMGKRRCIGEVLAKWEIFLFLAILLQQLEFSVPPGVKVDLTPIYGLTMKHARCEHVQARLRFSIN
Sequence of P-gp (P08183 whole entry): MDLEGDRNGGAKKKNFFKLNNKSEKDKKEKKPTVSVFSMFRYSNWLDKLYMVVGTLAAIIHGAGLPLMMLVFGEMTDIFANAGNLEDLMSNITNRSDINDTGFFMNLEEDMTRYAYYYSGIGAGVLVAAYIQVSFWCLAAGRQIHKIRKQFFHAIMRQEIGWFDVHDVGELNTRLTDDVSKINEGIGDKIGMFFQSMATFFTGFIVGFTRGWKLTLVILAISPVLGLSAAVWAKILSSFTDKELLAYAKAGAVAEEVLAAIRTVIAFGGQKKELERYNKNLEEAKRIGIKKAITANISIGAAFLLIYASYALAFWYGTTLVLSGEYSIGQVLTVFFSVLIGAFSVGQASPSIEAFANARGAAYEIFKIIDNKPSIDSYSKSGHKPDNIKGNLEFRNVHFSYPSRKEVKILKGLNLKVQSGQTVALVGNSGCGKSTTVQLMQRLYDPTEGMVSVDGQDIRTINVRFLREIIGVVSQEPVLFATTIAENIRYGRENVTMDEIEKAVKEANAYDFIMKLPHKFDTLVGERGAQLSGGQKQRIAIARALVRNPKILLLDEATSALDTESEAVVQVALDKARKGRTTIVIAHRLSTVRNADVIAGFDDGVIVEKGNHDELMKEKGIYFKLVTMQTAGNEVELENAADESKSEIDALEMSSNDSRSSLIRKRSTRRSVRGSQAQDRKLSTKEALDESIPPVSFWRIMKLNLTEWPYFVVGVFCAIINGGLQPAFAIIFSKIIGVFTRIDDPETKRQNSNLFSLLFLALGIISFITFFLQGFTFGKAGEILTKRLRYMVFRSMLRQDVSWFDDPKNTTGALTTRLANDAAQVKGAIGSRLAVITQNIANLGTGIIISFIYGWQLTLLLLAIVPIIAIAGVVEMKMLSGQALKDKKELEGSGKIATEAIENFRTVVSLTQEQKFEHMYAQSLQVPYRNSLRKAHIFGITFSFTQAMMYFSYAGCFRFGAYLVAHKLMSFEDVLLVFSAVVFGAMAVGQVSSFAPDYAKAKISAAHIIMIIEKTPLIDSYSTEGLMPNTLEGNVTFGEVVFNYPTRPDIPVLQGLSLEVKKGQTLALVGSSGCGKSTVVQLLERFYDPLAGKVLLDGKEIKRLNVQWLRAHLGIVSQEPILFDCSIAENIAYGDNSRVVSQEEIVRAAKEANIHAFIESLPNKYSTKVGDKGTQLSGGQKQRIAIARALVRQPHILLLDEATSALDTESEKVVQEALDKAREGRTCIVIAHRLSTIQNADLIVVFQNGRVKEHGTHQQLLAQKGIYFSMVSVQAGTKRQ
Sequence of CYP3A4 (P08684 whole entry): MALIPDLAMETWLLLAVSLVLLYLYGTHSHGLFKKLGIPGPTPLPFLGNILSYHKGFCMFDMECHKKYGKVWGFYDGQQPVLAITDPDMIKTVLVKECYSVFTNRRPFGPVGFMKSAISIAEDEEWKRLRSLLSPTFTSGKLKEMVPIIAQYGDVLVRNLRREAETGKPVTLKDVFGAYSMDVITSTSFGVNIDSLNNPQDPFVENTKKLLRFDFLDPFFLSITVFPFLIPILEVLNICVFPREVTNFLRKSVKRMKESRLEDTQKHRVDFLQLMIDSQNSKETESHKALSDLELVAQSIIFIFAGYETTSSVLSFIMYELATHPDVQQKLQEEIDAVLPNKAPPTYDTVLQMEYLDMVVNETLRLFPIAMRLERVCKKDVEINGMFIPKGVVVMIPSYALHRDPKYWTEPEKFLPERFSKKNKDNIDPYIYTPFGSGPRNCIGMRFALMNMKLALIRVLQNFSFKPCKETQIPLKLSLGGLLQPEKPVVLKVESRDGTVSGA

## Nc1nc(Cl)nc2c1ncn2[C@H]1C[C@H](O)[C@@H](CO)O1 [Cladribine, 2-chloro-2′deoxyadenosine]
[1]
  potential to act as inhibitor of CYP3A4: does not show significant potential to act as inhibitor
[2]
  Kp: ~0.25
[3]
  potential to act as inhibitor of CYP1A2: does not show significant potential to act as inhibitor
[4]
  potential to act as inhibitor of CYP2E1: does not show significant potential to act as inhibitor
[5]; in vivo, po
  reduction of Cmax with a high-fat meal (geometric mean): 29%
[5]; oral, high-fat meal
  AUC with a high-fat meal: unchanged
[6]
  P-gp related efflux: only minimally P-gp related
[7]
  Vd: 480 to 490 L
[7]; po, 10 mg
  bioavailability: ~40%
[8]
  potential to act as inhibitor of CYP2B6: does not show significant potential to act as inhibitor
[9]
  potential to act as inhibitor of CYP2C9: does not show significant potential to act as inhibitor
